{"source": "paper PMC4336329", "about": "(PLoS ONE, 2015)", "note": "In all, about 310,000 compounds went through this assay and about 14,000 (4.5%) showed an effect of 50% or more. The effect is printed as a negative number. The list shows a part of the results."}
{"biological_target": "human ether-à-go-go-related gene (hERG) potassium channel (human, UniProt Q12809)", "sequence (Q12809 whole entry, looked up)": "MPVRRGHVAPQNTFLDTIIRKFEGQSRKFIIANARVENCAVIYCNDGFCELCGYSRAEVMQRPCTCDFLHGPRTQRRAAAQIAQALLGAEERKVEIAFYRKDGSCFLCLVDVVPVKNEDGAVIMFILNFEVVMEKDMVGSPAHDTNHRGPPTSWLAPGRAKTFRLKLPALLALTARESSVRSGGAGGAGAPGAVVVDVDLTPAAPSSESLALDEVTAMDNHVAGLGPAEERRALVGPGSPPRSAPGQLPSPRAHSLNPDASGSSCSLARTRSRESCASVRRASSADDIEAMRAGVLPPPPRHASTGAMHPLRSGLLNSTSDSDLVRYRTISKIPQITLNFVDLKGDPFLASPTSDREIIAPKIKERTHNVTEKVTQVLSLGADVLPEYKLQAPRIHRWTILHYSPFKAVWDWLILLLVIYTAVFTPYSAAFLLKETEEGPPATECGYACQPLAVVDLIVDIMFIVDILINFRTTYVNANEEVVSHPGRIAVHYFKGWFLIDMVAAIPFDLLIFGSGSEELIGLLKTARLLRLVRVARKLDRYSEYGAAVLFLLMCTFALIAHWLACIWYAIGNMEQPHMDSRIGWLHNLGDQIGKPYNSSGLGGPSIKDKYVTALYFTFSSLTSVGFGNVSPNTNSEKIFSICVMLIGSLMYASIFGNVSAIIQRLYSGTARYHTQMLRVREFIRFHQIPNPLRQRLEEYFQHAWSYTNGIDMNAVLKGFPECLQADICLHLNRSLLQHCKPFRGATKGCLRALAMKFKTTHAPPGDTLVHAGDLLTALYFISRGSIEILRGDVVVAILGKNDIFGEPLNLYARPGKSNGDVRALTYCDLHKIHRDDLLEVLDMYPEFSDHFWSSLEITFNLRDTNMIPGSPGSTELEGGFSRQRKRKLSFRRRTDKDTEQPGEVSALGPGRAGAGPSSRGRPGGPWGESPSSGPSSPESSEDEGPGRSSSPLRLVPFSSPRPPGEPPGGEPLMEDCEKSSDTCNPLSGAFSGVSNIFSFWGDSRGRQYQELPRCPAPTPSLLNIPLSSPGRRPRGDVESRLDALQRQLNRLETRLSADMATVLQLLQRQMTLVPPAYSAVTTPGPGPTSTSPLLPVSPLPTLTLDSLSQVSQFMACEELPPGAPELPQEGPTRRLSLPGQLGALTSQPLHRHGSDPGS", "experiment": "primary screen, population patch clamp on CHO cells stably expressing hERG", "units": {"hERG current change (%, negative = inhibition) at 10uM": "%"}}
{"molecule": "Cc1ccccc1N1CCN(C2CCCN(C(=O)CCN3CCCCC3=O)C2)CC1", "note": "(centres unmarked);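 note: peak tail current of the secondary pulse compared with the same well before compound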", "hERG current change (%, negative = inhibition) at 10uM": -19.5}
{"molecule": "CCOc1ccccc1N(CC(=O)NC1CCCCC1)C(=O)CCC(=O)Nc1nccs1", "hERG current change (%, negative = inhibition) at 10uM": -28.4}
{"molecule": "COc1cccc(NC(=S)NC(=O)c2cncc(Br)c2)c1", "hERG current change (%, negative = inhibition) at 10uM": 6.77}
{"molecule": "COc1ccc(N2CCN(S(=O)(=O)c3ccc(OC)c(C(=O)N4CCOCC4)c3)CC2)cc1", "hERG current change (%, negative = inhibition) at 10uM": 1.68}
{"molecule": "COc1cccc(/C=N/NC(=O)CNC(=O)/C=C\\c2ccccc2)c1O", "hERG current change (%, negative = inhibition) at 10uM": 7.53}
{"molecule": "Cc1ccnc(NC(=O)c2ccc(COc3ccc(Cl)cc3)o2)c1", "hERG current change (%, negative = inhibition) at 10uM": -4.21}
{"molecule": "O=C(c1cnccn1)N1CCN(c2ccccc2F)CC1", "hERG current change (%, negative = inhibition) at 10uM": 18.5}
{"molecule": "Cc1ccccc1-n1nc(C(=O)c2cccs2)cc(-c2nc3ccccc3[nH]2)c1=N", "hERG current change (%, negative = inhibition) at 10uM": -1.9}
{"molecule": "O=C(CSc1nnc(-c2cccnc2)n1Cc1ccco1)N1c2ccccc2Sc2ccccc21", "hERG current change (%, negative = inhibition) at 10uM": -33.7}
{"molecule": "CCN(C(=O)C(C)Sc1ccc(S(=O)(=O)N2CCOCC2)cn1)c1ccccc1", "note": "(centres unmarked)", "hERG current change (%, negative = inhibition) at 10uM": 3.47}
{"molecule": "COc1cccc(CN2CCN(C(c3ccccc3)c3ccccc3)CC2)c1O.O=C(O)C(=O)O", "hERG current change (%, negative = inhibition) at 10uM": -64.5}
{"molecule": "Cn1c(SCC(=O)N2CCOCC2)nnc1-c1cnccn1", "hERG current change (%, negative = inhibition) at 10uM": 18}
{"molecule": "CCOC(=O)c1cnc(SCc2nc(N)nc(Nc3ccccc3OC)n2)nc1N", "hERG current change (%, negative = inhibition) at 10uM": -2.39}
{"molecule": "CC(=O)OCC(=O)[C@H]1CC[C@H]2[C@@H]3CC[C@H]4C[C@H](O)CC[C@]4(C)[C@H]3C(=O)C[C@]12C", "hERG current change (%, negative = inhibition) at 10uM": -20.1}
{"molecule": "O=c1nc(-c2ccccc2)c2cc(Br)ccc2[nH]1", "hERG current change (%, negative = inhibition) at 10uM": -6.26}
{"molecule": "CCOc1ccc(CCNC(=O)COC(=O)c2cccnc2OCC)cc1OCC", "hERG current change (%, negative = inhibition) at 10uM": -1.87}
{"molecule": "CCc1c(C)c(C#N)c2nc3ccccc3n2c1NC", "hERG current change (%, negative = inhibition) at 10uM": 4.55}
{"molecule": "COC(=O)C1=C(c2cc3ccccc3o2)C[C@@H]2CC[C@H]1N2C(=O)NCCO", "hERG current change (%, negative = inhibition) at 10uM": 16}
{"molecule": "S=C(Nc1ccccc1)N1CCCCCC1", "hERG current change (%, negative = inhibition) at 10uM": 10.4}
{"molecule": "COc1ccc([N+](=O)[O-])cc1NC(=O)Nc1cccc(Cl)c1", "hERG current change (%, negative = inhibition) at 10uM": 4.75}
{"molecule": "CSc1cccc(NS(=O)(=O)c2cc(Br)cnc2N)c1", "hERG current change (%, negative = inhibition) at 10uM": -27.5}
{"molecule": "COc1ccc(NC(=O)c2sc3nc(N4CCOCC4)c4c(c3c2N)CC(C)(C)OC4)c(OC)c1", "hERG current change (%, negative = inhibition) at 10uM": 15.2}
{"molecule": "CC1C=CCC2C(=O)N(c3ccc(OC(=O)c4ccco4)cc3)C(=O)C12", "note": "(centres unmarked)", "hERG current change (%, negative = inhibition) at 10uM": -3.79}
{"molecule": "COc1ccccc1NC(=O)c1ccc2c(c1)OCO2", "hERG current change (%, negative = inhibition) at 10uM": 10.6}
{"molecule": "Cc1ccc(S(=O)(=O)N2CCN(C(=O)c3cc4c(s3)CCCC4)CC2)cc1", "hERG current change (%, negative = inhibition) at 10uM": 8.26}
{"molecule": "O=C(O)CC1S/C(=N/N=C/C2CC=CCC2)NC1=O", "note": "(centres unmarked)", "hERG current change (%, negative = inhibition) at 10uM": 15.6}
{"molecule": "Cc1ccc(N2C(N)=C(C#N)C(c3cccnc3)C3=C2CC(C)(C)CC3=O)cc1", "note": "(centres unmarked)", "hERG current change (%, negative = inhibition) at 10uM": 0.65}
{"molecule": "O=c1c2ccccc2[nH]c(=S)n1CCCN1CCN(C2CCCCC2)CC1", "hERG current change (%, negative = inhibition) at 10uM": -53.9}
{"molecule": "Cc1c(NC(=O)CSc2nc3ccccc3c(=O)n2C(C)C)c(=O)n(-c2ccccc2)n1C", "hERG current change (%, negative = inhibition) at 10uM": -8.25}
{"molecule": "Cc1ccc(-c2n[nH]c(=S)n2/N=C/c2cc3c(cc2[N+](=O)[O-])OCO3)cc1", "hERG current change (%, negative = inhibition) at 10uM": 20.4}
{"molecule": "O=C(CN1C(=O)COc2ccccc21)N1CCc2ccccc2C1", "hERG current change (%, negative = inhibition) at 10uM": 5.63}
{"molecule": "O=C(Nc1ccccc1)C1=C[C@@H](c2ccc(C(F)(F)F)cc2)C[C@@H](OCCCCO)O1", "hERG current change (%, negative = inhibition) at 10uM": -2.91}
{"molecule": "CCNc1nc(NCC)nc(N2CC(=O)N(CC(=O)OCC)C2=N)n1", "hERG current change (%, negative = inhibition) at 10uM": -2.36}
{"molecule": "Nc1nc(-c2ccc(Cl)cc2)nnc1-c1ccc(Br)cc1", "hERG current change (%, negative = inhibition) at 10uM": 41}
{"molecule": "COCCC(=O)N1CCC(Oc2ccc(C(=O)N3C[C@H]4CC[C@H]3C4)cc2)CC1", "hERG current change (%, negative = inhibition) at 10uM": 13}
{"molecule": "COc1ccc(NC(=O)CSc2nnc3ccc(-c4cccnc4)nn23)cc1", "hERG current change (%, negative = inhibition) at 10uM": -46.4}
{"molecule": "Cc1cc(-c2nc3ncccc3o2)ccc1NC(=O)CC(C)C", "hERG current change (%, negative = inhibition) at 10uM": -17.1}
{"molecule": "Cc1ccc(C)c2nc(SCC(=O)Nc3ccc4c(c3)OCO4)c(C#N)cc12", "hERG current change (%, negative = inhibition) at 10uM": 5.6}
{"molecule": "CCOc1ccccc1NC(=O)CSc1nnc(Cc2ccc(OC)cc2)c(=O)n1N", "hERG current change (%, negative = inhibition) at 10uM": -26.7}
{"molecule": "O=C1NC(=S)/C(=C\\c2ccc(-c3ccccc3Cl)o2)S1", "hERG current change (%, negative = inhibition) at 10uM": 16.2}
{"molecule": "CC(=NCCC1=CCCCC1)c1c(O)n(C)c(=O)n(C)c1=O", "hERG current change (%, negative = inhibition) at 10uM": -5.8}
{"molecule": "CSc1nc(Oc2ccc(F)cc2F)cc(C(F)(F)F)n1", "hERG current change (%, negative = inhibition) at 10uM": 14.2}
{"molecule": "CC1(C)C([N+](=O)[O-])C(c2ccc(O)cc2)NC(c2ccc(O)cc2)C1[N+](=O)[O-]", "note": "(centres unmarked)", "hERG current change (%, negative = inhibition) at 10uM": -3.25}
{"molecule": "Cn1c(N)c(C(=O)COC(=O)C2CCC(C(C)(C)C)CC2)c(=O)n(C)c1=O", "note": "(centres unmarked)", "hERG current change (%, negative = inhibition) at 10uM": -15}
